T1: murine mannose receptor (MRC1; CD206) (murine, UniProt Q61830 20-1456)
T1 construct: whole, on cells; also called mMRC1; murine CD206
T1 sequence (looked up): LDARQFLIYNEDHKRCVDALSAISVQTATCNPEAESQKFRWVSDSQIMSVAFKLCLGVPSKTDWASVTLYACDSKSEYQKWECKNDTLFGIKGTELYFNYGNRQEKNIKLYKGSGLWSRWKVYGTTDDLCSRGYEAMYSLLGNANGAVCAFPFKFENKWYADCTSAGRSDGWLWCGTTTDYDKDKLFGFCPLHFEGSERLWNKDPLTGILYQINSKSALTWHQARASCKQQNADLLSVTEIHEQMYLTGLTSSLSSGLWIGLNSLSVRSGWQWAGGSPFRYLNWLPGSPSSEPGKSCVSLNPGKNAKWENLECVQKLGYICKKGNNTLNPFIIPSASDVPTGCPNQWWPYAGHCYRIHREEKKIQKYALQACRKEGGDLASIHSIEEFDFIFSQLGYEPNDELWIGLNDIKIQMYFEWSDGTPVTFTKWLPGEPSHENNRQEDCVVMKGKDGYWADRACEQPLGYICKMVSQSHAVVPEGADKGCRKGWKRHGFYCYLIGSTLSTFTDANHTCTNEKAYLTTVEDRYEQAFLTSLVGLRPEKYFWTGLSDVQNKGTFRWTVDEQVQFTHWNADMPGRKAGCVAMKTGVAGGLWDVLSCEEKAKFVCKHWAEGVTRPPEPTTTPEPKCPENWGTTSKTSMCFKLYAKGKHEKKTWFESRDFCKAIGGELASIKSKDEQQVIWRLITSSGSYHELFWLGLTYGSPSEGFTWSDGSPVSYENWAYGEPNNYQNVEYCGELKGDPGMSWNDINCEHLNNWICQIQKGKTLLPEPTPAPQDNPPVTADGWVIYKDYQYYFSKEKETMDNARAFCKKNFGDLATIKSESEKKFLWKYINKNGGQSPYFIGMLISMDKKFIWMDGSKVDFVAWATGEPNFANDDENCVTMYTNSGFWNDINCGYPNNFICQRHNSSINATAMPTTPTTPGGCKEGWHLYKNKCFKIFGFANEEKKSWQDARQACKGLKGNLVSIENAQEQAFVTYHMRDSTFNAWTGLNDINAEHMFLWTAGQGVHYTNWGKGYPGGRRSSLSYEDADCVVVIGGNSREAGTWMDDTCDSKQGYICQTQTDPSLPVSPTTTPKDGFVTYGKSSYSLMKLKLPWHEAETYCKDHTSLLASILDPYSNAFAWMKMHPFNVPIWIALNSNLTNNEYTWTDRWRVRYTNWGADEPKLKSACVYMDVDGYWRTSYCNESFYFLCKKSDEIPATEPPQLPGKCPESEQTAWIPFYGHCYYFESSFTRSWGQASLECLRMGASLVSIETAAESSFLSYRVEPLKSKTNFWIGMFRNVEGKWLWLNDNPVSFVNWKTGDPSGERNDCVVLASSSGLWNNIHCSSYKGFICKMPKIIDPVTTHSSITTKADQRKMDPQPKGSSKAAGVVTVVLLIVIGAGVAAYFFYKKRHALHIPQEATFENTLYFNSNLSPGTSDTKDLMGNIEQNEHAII

B1: 206Nb-RLI fusion protein (other)
chain: MAQVQLQESGGGLVQPGGSLRLSCAASGNIFSINAIGWYRQAPGKQRELVATITLSGSTNYADSVKGRFSISRDNAKNTVYLQMNSLKPEDTAVYYCNANTYSDSDVYGYWGQGTQVTVSSAHHSEDPSSKAPKAPMAITCPPPMSVEHADIWVKSYSLYSRERYICNSGFKRKAGTSSLTECVLNKATNVAHWTTPSLKCIRDPALVHQRPAPPSGGSGGGGSGGGSGGGGSLQ[about 120 residues not listed]
notes: The tag-free form was purified on an anti-IL15 column
B2: 206Nb-hIL15 fusion protein (other)
chain: MAQVQLQESGGGLVQPGGSLRLSCAASGNIFSINAIGWYRQAPGKQRELVATITLSGSTNYADSVKGRFSISRDNAKNTVYLQMNSLKPEDTAVYYCNANTYSDSDVYGYWGQGTQVTVSSAHHSEDPSSKAPKAPMA[about 120 residues not listed]
notes: not shown: C-terminal cMyc/6xHis tag

Columns and labels:
[1] = molecular target: T1, murine mannose receptor (MRC1; CD206); experiment: flow cytometry on CHO cells expressing mMRC1, detection with APC-conjugated anti-IL15 antibody
[2] = molecular target: T1, murine mannose receptor (MRC1; CD206); experiment: flow cytometry on CHO cells expressing mMRC1, detection with antibodies against IL15 or the 6xHis tag

Binder | binding result [1] | binding result [2]
B1 | binds | –
B2 | – | binds

Source: patent US20190023795A1 (OSLO UNIVERSITETSSYKEHUS HF, published 2019)
